From the supplement of paper PMC12217912
This is one part of the list. The full chains were built here from the parent and the listed change. Inactive controls read about 0.05.

B1: TEV protease; numbered along this chain (parent)
chain: MGESLFKGPRDYNPISSSICHLTNESDGHTTSLYGIGFGPFIITNKHLFRRNNGTLVVQSLHGVFKVKDTTTLQQHLVDGRDMIIIRMPKDFPPFPQKLKFREPQREERICLVTTNFQTKSMSSMVSDTSCTFPSGDGIFWKHWIQTKDGQCGSPLVSTRDGFIVGIHSASNFTNTNNYFTSVPKNFMELLTNQEAQQWVSGWRLNADSVLWGGHKVFMVKPEEPFQPVKEATQL

Variants of: B1
Experiment: raw area under fraction-flipped curve 0-4 h after induction (AUC4h, not background-subtracted), DNA-recorder readout of cleavage of the substrate (dimensionless); higher = more cleavage of the substrate by the protease variant
Conditions: temperature: 34 °C; time window: 0-4 h after rhamnose induction
Method: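 In vivo DNA recorder in E. coli TOP10(DE3) ΔrhaA at 34 °C. Each TEVp single-site mutant (parent TEVp 0) is paired with a single-site variant of the 7-mer TEVs (canonical ENLYFQ|S). The substrate sits between flexible linkers in a Bxb1-sfGFP-TEVs-SsrA fusion, so cleavage stabilises Bxb1 and speeds flipping of a recombination array, read by NGS. The value is the raw area under the fraction-flipped curve over 0-4 h after rhamnose induction (AUC4h), with ≥20 reads per time point. It is not background-subtracted; inactive controls average about 0.047.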
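Further: Bxb1 expression induced with 0.2% (w/v) L-rhamnose at OD600 near 0.5, cultures sampled hourly, flipped fraction per protease–substrate barcode pair counted by paired-end Illumina sequencing.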

Variant	area with substrate CNLYFQS	area with substrate DNLYFQS	area with substrate FNLYFQS	area with substrate HNLYFQS	area with substrate KNLYFQS	area with substrate MNLYFQS	area with substrate NNLYFQS	area with substrate PNLYFQS	area with substrate RNLYFQS	area with substrate SNLYFQS	area with substrate VNLYFQS	area with substrate WNLYFQS	area with substrate YNLYFQS	area with substrate GNLYFQS	area with substrate INLYFQS	area with substrate TNLYFQS	area with substrate LNLYFQS	area with substrate QNLYFQS
MGESLFKGPRDYNPISSSICHLTNESDGHTTSLYGIGFGPFIITNKHLFRRNNGTLVVQSLHGVFKVKDTTTLQQHLVDGRDMIIIRMPKDFPPFPQKLHFREPQREERICLVTTNFQTKSMSSMVSDTSCTFPSGDGIFWKHWIQTKDGQCGSPLVSTRDGFIVGIHSASNFTNTNNYFTSVPKNFMELLTNQEAQQWVSGWRLNADSVLWGGHKVFMVKPEEPFQPVKEATQL [K100H]	0.0664	0.0936	0.075	0.0432	0.0677	0.0713	0.067	0.075	0.0718	0.0727	0.0794	0.0621	0.0553					
MGESLFKGPRDYNPISSSICHLTNESDGHTTSLYGIGFGPFIITNKHLFRRNNGTLVVQSLHGVFKVKDTTTLQQHLVDGRDMIIIRMPKDFPPFPQKLIFREPQREERICLVTTNFQTKSMSSMVSDTSCTFPSGDGIFWKHWIQTKDGQCGSPLVSTRDGFIVGIHSASNFTNTNNYFTSVPKNFMELLTNQEAQQWVSGWRLNADSVLWGGHKVFMVKPEEPFQPVKEATQL [K100I]	0.065	0.0737						0.0743		0.0811		0.0739	0.0581	0.0732	0.0614	0.0722		
MGESLFKGPRDYNPISSSICHLTNESDGHTTSLYGIGFGPFIITNKHLFRRNNGTLVVQSLHGVFKVKDTTTLQQHLVDGRDMIIIRMPKDFPPFPQKLFFREPQREERICLVTTNFQTKSMSSMVSDTSCTFPSGDGIFWKHWIQTKDGQCGSPLVSTRDGFIVGIHSASNFTNTNNYFTSVPKNFMELLTNQEAQQWVSGWRLNADSVLWGGHKVFMVKPEEPFQPVKEATQL [K100F]	0.0639	0.0702		0.0597	0.071	0.0516	0.0551				0.0682	0.0751				0.0503		
MGESLFKGPRDYNPISSSICHLTNESDGHTTSLYGIGFGPFIITNKHLFRRNNGTLVVQSLHGVFKVKDTTTLQQHLVDGRDMIIIRMPKDFPPFPQMLKFREPQREERICLVTTNFQTKSMSSMVSDTSCTFPSGDGIFWKHWIQTKDGQCGSPLVSTRDGFIVGIHSASNFTNTNNYFTSVPKNFMELLTNQEAQQWVSGWRLNADSVLWGGHKVFMVKPEEPFQPVKEATQL [K98M]	0.0671	0.0805		0.0555	0.0762					0.0548		0.0577	0.0654	0.0704		0.0698	0.0665	0.0701
MGESLFKGPRDYNPISSSICHLTNESDGHTTSLYGIGFGPFIITNKHLFRRNNGTLVVQSLHGVFKVKDTTTLQQHLVDGRDMIIIRMPKDFPPFPQTLKFREPQREERICLVTTNFQTKSMSSMVSDTSCTFPSGDGIFWKHWIQTKDGQCGSPLVSTRDGFIVGIHSASNFTNTNNYFTSVPKNFMELLTNQEAQQWVSGWRLNADSVLWGGHKVFMVKPEEPFQPVKEATQL [K98T]	0.0788	0.076	0.0716	0.0592	0.0635	0.0713	0.0242	0.0738	0.0648	0.0714	0.071	0.0533	0.0763	0.0722	0.0721		0.0656	
MGESLFKGPRDYNPISSSICHLTNESDGHTTSLYGIGFGPFIITNKHLFRRNNGTLVVQSLHGVFKVKDTTTLQQHLVDGRDMIIIRMPKDFPPFPQGLKFREPQREERICLVTTNFQTKSMSSMVSDTSCTFPSGDGIFWKHWIQTKDGQCGSPLVSTRDGFIVGIHSASNFTNTNNYFTSVPKNFMELLTNQEAQQWVSGWRLNADSVLWGGHKVFMVKPEEPFQPVKEATQL [K98G]	0.0687	0.0745	0.0867	0.0572		0.075	0.104	0.0706				0.0683	0.0751	0.0885	0.0529	0.0716		
MGESLFKGPRDYNPISSSICHLTNESDGHTTSLYGIGFGPFIITNKHLFRRNNGTLVVQSLHGVFKVKDTTTLQQHLVDGRDMIIWRMPKDFPPFPQKLKFREPQREERICLVTTNFQTKSMSSMVSDTSCTFPSGDGIFWKHWIQTKDGQCGSPLVSTRDGFIVGIHSASNFTNTNNYFTSVPKNFMELLTNQEAQQWVSGWRLNADSVLWGGHKVFMVKPEEPFQPVKEATQL [I86W]	0.0543	0.0685	0.0602	0.051	0.0672	0.0556	0.0538	0.0703	0.0529	0.0619		0.0493	0.047	0.0599	0.0686	0.0609	0.0528	0.0651
MGESLFKGPRDYNPISSSICHLTNESDGHTTSLYGIGFGPFIITNKHLFRRNNGTLVVQSLHGVFKVKDTTTLQQHLVDGRDMIIDRMPKDFPPFPQKLKFREPQREERICLVTTNFQTKSMSSMVSDTSCTFPSGDGIFWKHWIQTKDGQCGSPLVSTRDGFIVGIHSASNFTNTNNYFTSVPKNFMELLTNQEAQQWVSGWRLNADSVLWGGHKVFMVKPEEPFQPVKEATQL [I86D]	0.0815	0.0592				0.0311	0.047				0.0415	0.0448			0.0282		0.0323	
MGESLFKGPRDYNPISSSICHLTNESDGHTTSLYGIGFGPFIITNKHLFRRNNGTLVVQSLHGVFKVKDTTTLQQHLVDGRDMFIIRMPKDFPPFPQKLKFREPQREERICLVTTNFQTKSMSSMVSDTSCTFPSGDGIFWKHWIQTKDGQCGSPLVSTRDGFIVGIHSASNFTNTNNYFTSVPKNFMELLTNQEAQQWVSGWRLNADSVLWGGHKVFMVKPEEPFQPVKEATQL [I84F]	0.0441	0.0666		0.0519	0.0429	0.0602				0.0589			0.029		0.0578	0.0654		0.0556
